# Test results published in PMC10668032.
# The list shows a part of the results. At the low end of the ranking the order means little.
# Biological target: SIX1 homeodomain (reference allele) (UniProt Q15475)
# Experiment: universal protein binding microarray
# Conditions: Universal all-10-mer PBM (8x60K, AMADID 030236), 300 nM GST-tagged protein, Alexa Fluor 488 anti-GST; buffer, salt, pH and temperature not stated; high values mean tight binding; most listed sequences are background and not binding sites; double strand, one strand shown
row,Sequence,binding signal [E-score]
1,AGACGGCT,0.011
2,CAGGTTTA,0.0814
3,CGGGTTGA,0.116
4,CCCTCTGA,0.0996
5,AGTTCCAC,-0.0463
6,GCTTAGCA,-0.319
7,GCACAGGA,-0.0908
8,ATCAGGGC,0.178
9,CGTTCCTC,-0.238
10,ATGGCGAC,-0.201
11,AACCCCGG,0.0849
12,TCCTCCAA,0.129
13,ACTGCTAA,-0.33
14,CAAACTTG,-0.105
15,TGAGCGCA,-0.18
16,CAAATCTA,-0.0634
17,ACATGTAG,0.0948
18,AGTAGTTA,-0.0767
19,CTACTTCA,-0.091
20,CACGGGGA,0.168
21,CGCCTAAA,-0.0284
22,ATAACTGG,0.0297
23,AACCCCGC,0.0672
24,CTTGAGAC,0.129
25,TCAGCCAA,-0.178

row,Sequence,binding signal [E-score]
1,GAGGAGCA,-0.16
2,ACACCGTG,0.277
3,CAAAGGAG,-0.127
4,TGGAGCAA,-0.19
5,TGTGTTAA,-0.183
6,CGCACTAG,-0.154
7,TGTCAGAA,-0.0102
8,AGGCATTC,-0.0827
9,TATGTAAA,0.0129
10,CCCGGCCA,-0.0489
11,TGAGTACA,-0.0445
12,ACGCGATG,0.121
13,GAGCTGCA,-0.152
14,CCCCCCAC,-0.0566
15,AGGGCCCC,-0.171
16,AAGTACTT,-0.234
17,TGTGGAAA,-0.156
18,ACCAGACA,-0.105
19,CTTACTGC,-0.0723
20,CGGAGACG,0.216
21,CATTTACG,-0.0412
22,AGGAGCTG,-0.0827
23,CCCGGAGG,-0.0239
24,CATTCCAA,-0.0612
25,TAGAAATA,-0.0582

row,Sequence,binding signal [E-score]
1,AGAGCGGG,-0.151
2,ATACGGCG,0.327
3,ACACTGAA,0.0565
4,ACGGACCA,0.0216
5,CTCTCCAG,-0.0247
6,GCCAGGTA,0.0415
7,GATGGATA,0.377
8,CGCTATAA,-0.0427
9,CCTGATAG,0.266
10,GTTGCCAA,-0.149
11,GGGTCGAA,0.115
12,CGTAGGGC,-0.0481
13,ATGCTAAG,-0.108
14,AACGAGTT,-0.17
15,GAAATAGC,-0.107
16,AAGCGGGA,-0.0613
17,ACAGGTTG,-0.2
18,AACCAACG,-0.151
19,AGGGGCTA,0.116
20,TCGAAGAA,-0.0899
21,GCCTACGA,-0.0359
22,ATACCGGG,0.399
23,CATTACGA,0.0639
24,GAGTTGAC,-0.195
25,CCGCTGCG,-0.099

row,Sequence,binding signal [E-score]
1,CCAAGCCA,-0.0313
2,CACACTAA,0.0501
3,CAGGCCAC,-0.311
4,AATACCAG,0.306
5,AACTGATT,-0.138
6,GGAGGTGA,0.0897
7,GAGGCGTA,0.0973
8,CCACGCCA,-0.0842
9,CCATTACG,-0.0682
10,CAACGCTG,-0.132
11,ACTTTGCT,-0.194
12,AAATGAAG,-0.0908
13,AGCACCAG,-0.204
14,CCGCGTGA,-0.0349
15,ACGGAAAA,-0.267
16,GATGCAGA,0.101
17,CTCCGTGA,0.0929
18,CGGTGGGC,-0.242
19,AATTCCTG,-0.252
20,ATCAATTG,0.147
21,ATCGGATC,0.426
22,CGGACTCA,0.0767
23,CTGGGAGC,0.0203
24,GTGAGGCA,-0.176
25,GCTCCGGA,-0.0286

row,Sequence,binding signal [E-score]
1,ACCACGCA,-0.0794
2,CACTCGAG,-0.0595
3,AAAGTGAA,-0.0804
4,AGGTGTCG,0.399
5,AAAGCGGT,-0.19
6,CCGTAGGC,-0.128
7,AGGGAGAC,0.13
8,ACCTGGGA,0.0671
9,CTTTGACA,-0.142
10,GTGCGTGA,-0.0269
11,AAGTAAAC,-0.198
12,ATTATCAC,0.146
13,GACAAGAA,-0.167
14,AGTTCTGG,-0.0474
15,CGAAAGTA,-0.253
16,CATCTCGA,0.127
17,CGTGCTGA,-0.0285
18,AGTCTTGA,-0.256
19,CAAAAACG,-0.12
20,ATGTATGG,-0.126
21,ACGAGATG,0.151
22,GGTAAACA,-0.0614
23,AGGGCCTG,-0.315
24,TCCCATAA,-0.0475
25,CAAGTCGG,0.0151

row,Sequence,binding signal [E-score]
1,CCTTAAGG,-0.00564
2,GACATATA,0.226
3,ACATCGCT,-0.184
4,ACGGCCAT,-0.0898
5,CGCTACAG,-0.115
6,CTCCATCA,0.157
7,ACCTGCCC,-0.127
8,CCGACAGA,0.195
9,GTAGGTGA,-0.0489
10,GCTTTTCC,-0.237
11,CGTATAGA,0.28
12,CATCGCTA,-0.0699
13,ATTAGGAC,-0.00345
14,AGGAATAA,0.00961
15,ACACTCCT,-0.00542
16,GTAGTGCA,0.00679
17,ATCTTAGG,-0.0286
18,CGTCGGAC,-0.119
19,TCATTAGA,-0.0558
20,CGCAGAGC,-0.246
21,ACCTTCCT,-0.0566
22,ACGTAGAC,-0.183
23,AGGGTTAC,-0.109
24,ATCCTCGA,0.313
25,AGTTCACG,-0.208

row,Sequence,binding signal [E-score]
1,GAAGCACC,-0.107
2,GACTGCAC,-0.222
3,AAAAGAGG,-0.128
4,AGGCCACG,-0.0865
5,GCTCACTA,-0.0428
6,CAAAAGCC,-0.227
7,ACAATGAT,0.137
8,GTTGACGA,-0.196
9,ACATATCT,0.233
10,AAACCGTA,0.0539
11,CATTCCCG,-0.156
12,AAGCGGCC,-0.26
13,CGCAAACA,-0.105
14,CCAATAAG,-0.174
15,AGAAAGCG,-0.226
16,GAGCGTCA,-0.24
17,AACCCGCT,-0.0842
18,TATTAGGA,0.109
19,CGTGGTGC,-0.246
20,AGCAAATG,-0.25
21,CGACGCAG,-0.1
22,CATCGCCC,0.0101
23,ATCACGGC,0.14
24,AACTTCTG,-0.247
25,AGGCAGAC,-0.0905

row,Sequence,binding signal [E-score]
1,CTCGGCGC,-0.0825
2,CGCACGCC,-0.0869
3,GACCCGCC,0.0759
4,ATATTGAC,0.145
5,ATTCCGTG,0.156
6,ATTAAGTA,0.0942
7,CGGAACTC,0.0207
8,GTAACGTA,-0.22
9,ACCGCTCC,-0.169
10,CATCTTGA,-0.138
11,GGCAGCAC,-0.198
12,CTAGGTTA,-0.0917
13,CCGATACA,0.355
14,GGAATAAA,-0.145
15,ATGAATGA,-0.0359
16,ACACCAAA,0.263
17,CCTACGGC,-0.202
18,AATTCAAT,-0.175
19,AATTGAGA,0.131
20,CAAGATGA,-0.0342
21,ATCCGATA,0.466
22,CCTTACCA,-0.146
23,CCCTGTTA,0.00736
24,GACGGGAA,-0.118
25,ACCTGCGA,-0.00164

row,Sequence,binding signal [E-score]
1,CAACAGGA,-0.043
2,GCAGCGGA,-0.0525
3,AATTCGAC,-0.19
4,ATCCCTCC,0.329
5,CTGGTACC,-0.0977
6,GGACTCAA,-0.0841
7,TCGAGAGA,0.131
8,CATTGACG,-0.0322
9,CAACCGGG,-0.0253
10,AGACCTCG,0.0568
11,CGGTAGCA,-0.112
12,GAGAACCC,0.246
13,GCTTATCA,0.066
14,CAGGTGAA,-0.194
15,AGAGACAT,0.0366
16,ATGGACTG,-0.181
17,GCTGATCC,0.425
18,CAACCCTG,0.0479
19,CCGACAAC,-0.13
20,ACCAGAGG,-0.066
21,AAACGCTA,-0.249
22,CTGAAATA,-0.00998
23,AATACCCG,0.293
24,GTATTTTA,0.128
25,GCCCAATA,0.114

row,Sequence,binding signal [E-score]
1,AAGGTCTC,-0.0615
2,ACCTGTCA,-0.128
3,CGTGAATA,0.0933
4,ACTTACAT,-0.106
5,TCCTAACA,-0.0935
6,AGTGGTGG,-0.0271
7,TCGCTCAA,-0.139
8,AGGTCTAA,-0.0365
9,CAGGTTAG,-0.176
10,CACAATAA,0.00671
11,CACTGTCG,-0.109
12,GATAATAA,0.0943
13,AACCGACG,-0.125
14,CATAGAGG,0.103
15,AACAAAAA,-0.156
16,GGAAAAAA,-0.155
17,ATGAGTAG,0.0288
18,AGCATCTG,-0.162
19,CGCTGCTA,-0.22
20,ACGACCGT,-0.0243
21,CCACCCCG,0.151
22,CGACCGAC,-0.158
23,AGAGGATG,0.12
24,CATATGCC,0.162
25,ATTGTCCC,-0.134

row,Sequence,binding signal [E-score]
1,ACACTAAT,0.122
2,CGGTTACG,-0.0744
3,AATGCCTA,0.0122
4,GCAGCCAA,0.063
5,ATTAGTTA,0.00553
6,GTACGATA,0.338
7,CATGCGAG,0.0285
8,CCAGCTTC,-0.151
9,GTGTTGGA,0.0917
10,CGCTGCAA,-0.25
11,CCTAGTAC,-0.118
12,AAAGAGTT,-0.246
13,ATCAGTCA,0.223
14,ACAGCCCA,-0.217
15,AATTGAAG,-0.108
16,GCCCCGAC,-0.0832
17,AATATTGC,0.121
18,GTGCATAA,-0.00109
19,CATTGCAC,-0.0877
20,CAAAAAGA,-0.118
21,GAAAATGA,0.0119
22,CGGCCGCA,0.0197
23,CCTAACGC,-0.143
24,CAGACCCC,-0.047
25,AAACCAAG,-0.153

row,Sequence,binding signal [E-score]
1,GGGGTGCA,0.0953
2,AGGTAGCG,-0.0699
3,AACCATTG,-0.0642
4,CAGTGCAG,-0.229
5,TAAAGGAA,-0.159
6,CTTTGAAA,-0.231
7,CTACGGGC,-0.265
8,AAAGAGGC,-0.259
9,GATACCGA,0.416
10,AACGGGAA,-0.221
11,AACCTTAT,-0.116
12,ATCACCTA,0.232
13,CATAACCC,-0.0769
14,AACACCGG,0.295
15,GCTCGAGA,-0.11
16,CTACCTGC,-0.058
17,ACCGGCGC,-0.0142
18,CCAGGGTA,0.221
19,CTTAACCC,-0.0917
20,ATAGATGC,0.0234
21,ATCGTAGC,0.093
22,AAGATTCA,-0.0636
23,CGCAAGGC,-0.166
24,GAGATTAC,0.109
25,CCACTTAA,-0.0871

row,Sequence,binding signal [E-score]
1,GACCGGCC,-0.173
2,AAAGACGG,-0.106
3,GCCAACCC,-0.113
4,AAATGGGC,-0.261
5,AAAGACCA,-0.273
6,TCCTTCGA,0.0312
7,CTACTATC,0.273
8,CTTTTTCA,-0.221
9,AAGCCGTA,0.0861
10,AGCGTCCA,-0.274
11,CAGTGCTA,0.063
12,AAACACCT,0.148
13,GTGGAGAA,-0.127
14,ATTTCTGA,-0.15
15,GTATACCA,0.364
16,CGTTTCCA,-0.222
17,AGTTGAAG,-0.114
18,GATGAGTA,0.135
19,ATAGGAGC,-0.047
20,CGATAGGA,0.26
21,AGGCGAAT,-0.097
22,CACATTGG,-0.0156
23,CTAATTAC,-0.248
24,ACGACGGG,-0.0227
25,AATTACAC,0.0473

row,Sequence,binding signal [E-score]
1,ACAGTTCG,-0.188
2,AACGCAAT,-0.0842
3,ACAGTCAG,0.0476
4,CGCGCTCA,-0.065
5,GTTGCAAC,-0.158
6,GCTTACAA,-0.0765
7,ACCGGGAG,-0.0349
8,ATTAAGGG,-0.0808
9,TCGACAGA,-0.101
10,ACCGGACC,-0.0544
11,CGGCCGAC,-0.131
12,GTCGCCAC,-0.219
13,GTTTTGCA,-0.0257
14,CCTGCTCA,0.0754
15,CAAATCTC,-0.203
16,ATTTATTC,-0.148
17,ATATTCCC,0.305
18,AGAAGGAT,0.252
19,CGGTGTGA,0.204
